From patent US12692294B2, “Engineered NRG-1 variants with improved selectivity toward ErbB4 but not against ErbB3” (Amgen Inc., priority 2021, dated 2026)

What was measured:
[1] = biological target: T1, ErbB3 (Rattus norvegicus, UniProt Q62799); test: In vitro phosphorylation of Akt in rat Schwann cells; assay type: cell-based; conditions: Akt (Serine 473) phosphorylation, 15 minutes treatment, read-out: Schwann cells (SC) (ErbB3) Avg EC50
T1 construct: forming the ErbB2/ErbB4 complex in cardiomyocytes and the ErbB2/ErbB3 complex in Schwann cells; endogenous in cells; host or cells: rat Schwann cells
T1 sequence (Q62799 20-1339): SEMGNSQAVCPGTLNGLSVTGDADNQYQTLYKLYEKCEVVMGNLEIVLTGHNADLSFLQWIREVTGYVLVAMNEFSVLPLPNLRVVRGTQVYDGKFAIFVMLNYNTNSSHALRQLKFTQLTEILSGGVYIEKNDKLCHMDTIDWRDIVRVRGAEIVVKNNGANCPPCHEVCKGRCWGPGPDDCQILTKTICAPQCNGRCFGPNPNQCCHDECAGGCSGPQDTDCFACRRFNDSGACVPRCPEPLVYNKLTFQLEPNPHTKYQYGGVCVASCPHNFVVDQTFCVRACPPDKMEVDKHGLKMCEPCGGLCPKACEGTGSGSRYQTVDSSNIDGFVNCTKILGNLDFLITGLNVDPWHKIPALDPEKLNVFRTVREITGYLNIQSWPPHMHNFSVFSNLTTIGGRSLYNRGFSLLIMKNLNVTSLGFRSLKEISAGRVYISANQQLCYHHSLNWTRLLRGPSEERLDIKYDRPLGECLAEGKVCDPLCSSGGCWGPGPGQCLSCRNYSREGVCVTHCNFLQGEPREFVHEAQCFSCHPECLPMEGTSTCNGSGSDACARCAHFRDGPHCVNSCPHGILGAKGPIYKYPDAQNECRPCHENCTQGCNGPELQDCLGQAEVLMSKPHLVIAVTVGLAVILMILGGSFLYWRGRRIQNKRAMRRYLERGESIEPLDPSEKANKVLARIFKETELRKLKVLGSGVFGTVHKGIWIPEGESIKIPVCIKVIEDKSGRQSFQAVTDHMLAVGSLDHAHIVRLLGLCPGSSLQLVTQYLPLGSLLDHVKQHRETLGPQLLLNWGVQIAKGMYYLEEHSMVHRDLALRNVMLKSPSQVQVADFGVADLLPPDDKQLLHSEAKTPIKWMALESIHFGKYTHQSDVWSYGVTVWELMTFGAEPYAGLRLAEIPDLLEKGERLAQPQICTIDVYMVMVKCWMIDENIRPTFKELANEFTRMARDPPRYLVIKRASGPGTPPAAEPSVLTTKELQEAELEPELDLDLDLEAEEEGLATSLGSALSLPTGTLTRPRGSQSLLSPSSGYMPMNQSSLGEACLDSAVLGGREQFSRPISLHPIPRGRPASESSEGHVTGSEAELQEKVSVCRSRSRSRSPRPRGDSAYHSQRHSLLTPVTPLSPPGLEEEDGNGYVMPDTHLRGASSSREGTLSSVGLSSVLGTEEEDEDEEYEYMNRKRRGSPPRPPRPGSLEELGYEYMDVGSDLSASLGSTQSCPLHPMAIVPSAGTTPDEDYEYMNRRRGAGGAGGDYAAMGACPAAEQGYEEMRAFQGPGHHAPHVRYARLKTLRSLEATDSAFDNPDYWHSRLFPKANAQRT
T1 sequence (P06494 23-1257 partner): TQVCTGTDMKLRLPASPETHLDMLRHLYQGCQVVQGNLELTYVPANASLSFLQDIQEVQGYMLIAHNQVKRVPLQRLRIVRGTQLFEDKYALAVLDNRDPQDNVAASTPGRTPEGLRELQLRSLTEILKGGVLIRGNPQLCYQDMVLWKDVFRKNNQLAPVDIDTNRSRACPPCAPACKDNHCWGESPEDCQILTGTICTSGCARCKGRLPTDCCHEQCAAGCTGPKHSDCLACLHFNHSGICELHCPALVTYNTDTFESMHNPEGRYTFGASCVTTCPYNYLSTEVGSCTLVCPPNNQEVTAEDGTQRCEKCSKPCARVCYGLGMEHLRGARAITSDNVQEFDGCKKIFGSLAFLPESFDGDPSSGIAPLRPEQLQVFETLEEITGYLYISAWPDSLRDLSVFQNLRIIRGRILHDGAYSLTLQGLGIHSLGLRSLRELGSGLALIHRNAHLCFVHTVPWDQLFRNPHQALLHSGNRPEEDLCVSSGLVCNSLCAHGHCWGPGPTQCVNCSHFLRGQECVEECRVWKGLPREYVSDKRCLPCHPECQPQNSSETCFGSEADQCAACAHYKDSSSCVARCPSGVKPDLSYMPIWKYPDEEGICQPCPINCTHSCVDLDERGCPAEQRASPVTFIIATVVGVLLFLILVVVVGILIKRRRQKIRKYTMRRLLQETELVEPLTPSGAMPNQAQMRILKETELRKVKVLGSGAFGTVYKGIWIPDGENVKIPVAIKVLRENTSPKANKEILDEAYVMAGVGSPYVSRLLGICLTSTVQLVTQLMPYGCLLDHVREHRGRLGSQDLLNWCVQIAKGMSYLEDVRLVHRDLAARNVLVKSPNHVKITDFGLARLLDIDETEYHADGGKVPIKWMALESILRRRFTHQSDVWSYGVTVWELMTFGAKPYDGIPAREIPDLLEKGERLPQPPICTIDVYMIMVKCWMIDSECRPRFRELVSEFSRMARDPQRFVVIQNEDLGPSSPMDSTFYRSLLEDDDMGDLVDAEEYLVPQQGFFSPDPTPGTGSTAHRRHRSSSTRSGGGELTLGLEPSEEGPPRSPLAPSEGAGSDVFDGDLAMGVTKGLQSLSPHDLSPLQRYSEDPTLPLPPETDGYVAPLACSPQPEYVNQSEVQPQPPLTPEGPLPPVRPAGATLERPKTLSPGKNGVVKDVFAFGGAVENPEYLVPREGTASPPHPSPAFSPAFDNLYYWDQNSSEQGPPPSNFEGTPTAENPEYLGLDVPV
Procedure, shortened: (§1)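 Neonatal Sprague Dawley rat cardiomyocytes (ErbB2/ErbB4) and rat Schwann cells (ErbB2/ErbB3), serum-starved 16 h, were exposed 15 min to neuregulin variant titrations. Ser473 phospho- and total Akt measured by MSD electrochemiluminescence; percent phosphorylation fitted by 4-parameter curve for EC50, top value giving CM % agonism.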

[2] = biological target: T2, ErbB4 (Rattus norvegicus, UniProt Q62956); test: In vitro phosphorylation of Akt in neonatal rat cardiomyocytes; assay type: cell-based; conditions: for EC50: Akt (Serine 473) phosphorylation, neonatal rat cardiomyocytes, 15 minutes treatment, read-out: Cardiomyocyte (CM) (ErbB4) Avg EC50; for Selectivity SC/CM: ratio of EC50s Schwann cells/cardiomyocytes; for CM % Agonism AVG: top value of the Akt phosphorylation data points in cardiomyocytes, wild-type control 100
T2 construct: forming the ErbB2/ErbB4 complex in cardiomyocytes and the ErbB2/ErbB3 complex in Schwann cells; endogenous in cells; host or cells: primary neonatal rat cardiomyocytes (Sprague Dawley pups, 0 to 4 days old)
T2 sequence (Q62956 26-1308): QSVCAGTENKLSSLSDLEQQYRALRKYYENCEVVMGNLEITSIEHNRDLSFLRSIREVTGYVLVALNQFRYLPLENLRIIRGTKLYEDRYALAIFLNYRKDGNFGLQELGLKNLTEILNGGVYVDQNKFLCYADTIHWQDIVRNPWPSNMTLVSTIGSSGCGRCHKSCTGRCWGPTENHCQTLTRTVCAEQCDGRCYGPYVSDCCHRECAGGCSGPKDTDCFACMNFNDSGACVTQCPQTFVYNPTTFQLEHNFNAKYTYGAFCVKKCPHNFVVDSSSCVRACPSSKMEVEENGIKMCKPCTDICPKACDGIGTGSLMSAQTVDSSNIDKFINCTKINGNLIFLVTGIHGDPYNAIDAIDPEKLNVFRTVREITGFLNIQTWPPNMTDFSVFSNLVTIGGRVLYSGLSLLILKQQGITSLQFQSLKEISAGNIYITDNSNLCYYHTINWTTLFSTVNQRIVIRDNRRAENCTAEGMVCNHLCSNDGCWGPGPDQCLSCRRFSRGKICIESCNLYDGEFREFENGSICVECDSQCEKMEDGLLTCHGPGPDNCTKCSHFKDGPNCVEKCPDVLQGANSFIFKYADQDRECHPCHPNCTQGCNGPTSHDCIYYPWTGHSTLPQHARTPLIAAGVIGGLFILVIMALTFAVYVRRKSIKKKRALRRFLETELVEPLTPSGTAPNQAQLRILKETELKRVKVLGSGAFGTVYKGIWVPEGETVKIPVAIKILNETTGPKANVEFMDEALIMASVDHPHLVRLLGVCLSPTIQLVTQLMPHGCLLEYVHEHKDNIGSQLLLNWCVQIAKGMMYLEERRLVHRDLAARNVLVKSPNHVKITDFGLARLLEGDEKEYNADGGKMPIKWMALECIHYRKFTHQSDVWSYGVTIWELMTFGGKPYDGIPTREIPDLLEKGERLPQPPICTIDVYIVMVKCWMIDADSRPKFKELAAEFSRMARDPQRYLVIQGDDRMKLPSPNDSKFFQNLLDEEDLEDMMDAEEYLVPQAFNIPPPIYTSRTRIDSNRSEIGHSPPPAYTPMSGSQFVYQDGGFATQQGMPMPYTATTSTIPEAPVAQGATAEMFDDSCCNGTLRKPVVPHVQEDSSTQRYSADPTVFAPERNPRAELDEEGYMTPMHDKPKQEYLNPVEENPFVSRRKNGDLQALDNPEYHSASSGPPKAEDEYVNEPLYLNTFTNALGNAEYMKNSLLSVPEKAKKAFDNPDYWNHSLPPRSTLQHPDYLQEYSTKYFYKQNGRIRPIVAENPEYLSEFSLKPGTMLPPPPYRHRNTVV
T2 sequence (P06494 23-1257 partner): as the sequence (P06494 23-1257 partner) above
Procedure, shortened: as §1

Molecule | EC50 [1] | EC50 [2] | Selectivity SC/CM [2] | CM % Agonism AVG [2]
huNRG1(S177-Q237)(NRGE1E)::GG::huFcSEFL2 (Pb): Fc fusion of NRG1 variant SEQ ID NO:132 (protein, huNRG1(S177-Q237)(NRGE1E)::GG::huFcSEFL2 (Pb)) SHLVKCGENDKSFCVNGGECFMIEGPSNPSRYLCKCPNEFTGDRCQNDFMASFYKAEELYQGG[letters of human IgG1 Fc with R292C N297G V302C (EU numbers) not shown] | > 10000 nM | 0.995 nM | >10000 | 83%
huNRG1(S177-Q237)(NRGE1F)::GG::huFcSEFL2 (Pb): Fc fusion of NRG1 variant SEQ ID NO:133 (protein, huNRG1(S177-Q237)(NRGE1F)::GG::huFcSEFL2 (Pb)) SHLVKCAENDKSFCVNGGECYMVEGSSIPSRYLCKCPNEFTGDRCQNDFMASFYKAEELYQGG[letters of human IgG1 Fc with R292C N297G V302C (EU numbers) not shown] | > 10000 nM | 0.65 nM | >10000 | 90%
huNRG1(S177-Q237)(NRGE1G)::GG::huFcSEFL2 (Pb): Fc fusion of NRG1 variant SEQ ID NO:134 (protein, huNRG1(S177-Q237)(NRGE1G)::GG::huFcSEFL2 (Pb)) SHLVKCGEKHKSFCVNGGECYMVEGSSIPSRYLCKCPNEFTGDRCQNDFMASFYKAEELYQGG[letters of human IgG1 Fc with R292C N297G V302C (EU numbers) not shown] | > 10000 nM | 0.218 nM | >10000 | 84%
huNRG1(S177-Q237)(NRGE1H)::GG::huFcSEFL2 (Pb): Fc fusion of NRG1 variant SEQ ID NO:135 (protein, huNRG1(S177-Q237)(NRGE1H)::GG::huFcSEFL2 (Pb)) SHLVKCGESHKSFCVNGGECFMIEGPSNPSRYLCKCPNEFTGDRCQNDFMASFYKAEELYQGG[letters of human IgG1 Fc with R292C N297G V302C (EU numbers) not shown] | > 10000 nM | 0.286 nM | >10000 | 88%
huNRG1(S177-F229)(NRGE1C) (D48T_F49Q_M50I) huIgG1z SELF2 Fc: Fc fusion of NRG1 variant SEQ ID NO:118 (protein, huNRG1(S177-F229)(NRGE1C) (E47A_D48P_F49H_M50I) huIgG1z SELF2 Fc) SHLVKCGEKHKSFCVNGGECFMIEGPSNPSRYLCKCPNEFTGDRCQAPHIASFGGGGEGGGGAGGGG[letters of human IgG1 Fc with R292C N297G V302C (EU numbers) not shown] | 10000 nM | 0.24 nM | >10000 | 83.6%
huNRG1(S177-F229)(NRGE1C) (E47K_48T_F49S_M50L) huIgGlz SELF2 Fc: Fc fusion of NRG1 variant SEQ ID NO:120 (protein, huNRG1(S177-F229)(NRGE1C) (E47K_D48T_F49S_M50L) huIgG1z SELF2 Fc) SHLVKCGEKHKSFCVNGGECFMIEGPSNPSRYLCKCPNEFTGDRCQKTSLASFGGGGEGGGGAGGGG[letters of human IgG1 Fc with R292C N297G V302C (EU numbers) not shown] | 10000 nM | 0.25 nM | >10000 | 92.9%
huNRG1(S177-F229)(NRGE1C) (E47A_D48P_F49H_M50I) huIgG1z SELF2 Fc: Fc fusion of NRG1 variant SEQ ID NO:119 (protein, huNRG1(S177-F229)(NRGE1C) (E47A_D48P_F49H_M50I) huIgG1z SELF2 Fc) SHLVKCGEKHKSFCVNGGECFMIEGPSNPSRYLCKCPNEFTGDRCQAPHIASFGGGGEGGGGAGGGG[letters of human IgG1 Fc with R292C N297G V302C (EU numbers) not shown] | 10000 nM | 0.23 nM | >10000 | 85.8%

The next lines start with the values.

EC50 [1] | EC50 [2] | Selectivity SC/CM [2] | CM % Agonism AVG [2] | Molecule
> 10000 nM | 7.54 nM | 1320 | 66% | huNRG1(S177-Q237)(NRGE1K)::GG::huFcSEFL2 (Pb): Fc fusion of NRG1 variant SEQ ID NO:138 (protein, huNRG1(S177-Q237)(NRGE1K)::GG::huFcSEFL2 (Pb)) SHLVKCAEKHKSFCVNGGECFMIEGPSNPSRYLCKCPNEFTGDRCQDDFMASFYKAEELYQGG[letters of human IgG1 Fc with R292C N297G V302C (EU numbers) not shown]
> 10000 nM | 2.29 nM | >4370 | 74% | huNRG1(S177-Q237)(NRGE1L)::GG::huFcSEFL2 (Pb): Fc fusion of NRG1 variant SEQ ID NO:139 (protein, huNRG1(S177-Q237)(NRGE1L)::GG::huFcSEFL2 (Pb)) SHLVKCGESHKSFCVNGGECYMVEGSSIPSRYLCKCPNEFTGDRCQDDFMASFYKAEELYQGG[letters of human IgG1 Fc with R292C N297G V302C (EU numbers) not shown]
> 10000 nM | 14.1 nM | 710 | 68% | huNRG1(S177-Q237)(NRGEU)::GG::huFcSEFL2 (Pb): Fc fusion of NRG1 variant, probably NRGE1J, SEQ ID NO:137 (protein, huNRG1(S177-Q237)(NRGE1J)::GG::huFcSEFL2 (Pb)) SHLVKCGENDKSFCVNGGECYMVEGSSIPSRYLCKCPNEFTGDRCQDDFMASFYKAEELYQGG[letters of human IgG1 Fc with R292C N297G V302C (EU numbers) not shown]
546 nM | 1.04 nM | 526 | 27% | huNRG1(S177-Q237)(NRGE1O)::GG::huFcSEFL2 (Pb): Fc fusion of NRG1 variant SEQ ID NO:142 (protein, huNRG1(S177-Q237)(NRGE1O)::GG::huFcSEFL2 (Pb)) SHLVKCGEKHKSFCVNGGECYMVEGSSIPSRYLCKCPNEFTGDRCQDFFMASFYKAEELYQGG[letters of human IgG1 Fc with R292C N297G V302C (EU numbers) not shown]
> 10000 nM | 22.9 nM | 437 | 67% | huNRG1(S177-Q237)(NRGE1I)::GG::huFcSEFL2 (Pb): Fc fusion of NRG1 variant SEQ ID NO:136 (protein, huNRG1(S177-Q237)(NRGE1J)::GG::huFcSEFL2 (Pb)) SHLVKCGENDKSFCVNGGECFMIEGPSNPSRYLCKCPNEFTGDRCQDDFMASFYKAEELYQGG[letters of human IgG1 Fc with R292C N297G V302C (EU numbers) not shown]
510 nM | 2.22 nM | 229 | 28% | huNRG1(S177-Q237)(NRGE1P)::GG::huFcSEFL2 (Pb): Fc fusion of NRG1 variant SEQ ID NO:143 (protein, huNRG1(S177-Q237)(1D3)::GG::huFcSEFL2 (Pb)) SHLVKCAESHKSFCVNGGECFMIEGPSNPSRYLCKCPNEFTGDRCQDFFMASFYKAEELYQGG[letters of human IgG1 Fc with R292C N297G V302C (EU numbers) not shown]
1010 nM | 25.6 nM | 39 | 30% | huNRG1(S177-Q237)(NRGE1M)::GG::huFcSEFL2 (Pb): Fc fusion of NRG1 variant SEQ ID NO:140 (protein, huNRG1(S177-Q237)(NRGE1M)::GG::huFcSEFL2 (Pb)) SHLVKCGENDKSFCVNGGECFMIEGPSNPSRYLCKCPNEFTGDRCQDFFMASFYKAEELYQGG[letters of human IgG1 Fc with R292C N297G V302C (EU numbers) not shown]
751 nM | 1.73 nM | 435 | 26% | huNRG1(S177-Q237)(NRGE1N)::GG::huFcSEFL2 (Pb): Fc fusion of NRG1 variant SEQ ID NO:141 (protein, huNRG1(S177-Q237)(NRGE1N)::GG::huFcSEFL2 (Pb)) SHLVKCGENDKSFCVNGGECYMVEGSSIPSRYLCKCPNEFTGDRCQDFFMASFYKAEELYQGG[letters of human IgG1 Fc with R292C N297G V302C (EU numbers) not shown]
